This note sets out measurements from a collection of fitness landscapes (doi:10.1016/j.celrep.2020.107928).

Whole data set: some 81,000 sequences, median “one-hybrid fitness for binding NBS DNA” near -0.1, cut for the highest 2% near 0.36. The list shows a part of the results.

First the molecules themselves.
B1: Caulobacter ParB omega fusion; a variant is named by its letters at X, in order, B8GW30 (parent)
chain: MESVVVGEPGMSEGRRGLGRGLSALLGEVDAAPAQAPGEQLGGSREAPIEILQRNPDQPRRTFREEDLEDLSNSIREKGVLQPILVRPSPDTAGEYQIVAGERAWRAAQRAGLKTVPIMVRELDDLAVLEIGIIENVQRADLNVLEEALSYKVLMEKFERTQENIAQTIGKSXSHVANXMRLLXLPDEVQSYLVSGELTAXHARAIAAAADPVALAKQIIEGGLSVRETEALARKAPNLSAGKSKGGRPPRVKDTDTQALESDLSSVLGLDVSIDHRGSTGTLTITYATLEQLDDLCNRLTRGI

The variants in the test derive from B1. The test is described as follows: one-hybrid fitness for binding NBS DNA (the Noc-binding site; scaled: cognate 1, non-cognate 0); higher = stronger binding. The settings on record: with NBS DNA site. The method, boiled down: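 Bacterial one-hybrid selection in E. coli USO rpoZ- hisB- pyrF- with a HIS3 reporter carrying the site 19 bp from the promoter, screening Caulobacter ParB libraries with four specificity codons randomised (NNS). Cells grew 48 hours at 37°C on M9-minus-histidine plus 0.1 mM IPTG and 5 mM 3-AT. Plasmids before and after selection were Illumina-sequenced, three replicate libraries pooled, and variants under 10 reads dropped. Fitness is the log change in variant-to-wild-type read ratio, rescaled to cognate 1, non-cognate 0.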
With VKRT, the “one-hybrid fitness for binding NBS DNA” value is at most 0.2.

On to DIGG, for which the “one-hybrid fitness for binding NBS DNA” value was determined as 0.262.

For SGQG, the “one-hybrid fitness for binding NBS DNA” value was at most 0.2.

As for HDLD, the “one-hybrid fitness for binding NBS DNA” value is at most 0.2.

As for TPMV, the “one-hybrid fitness for binding NBS DNA” value was at most 0.2.

For DYWS, the “one-hybrid fitness for binding NBS DNA” value was at most 0.2.

VKHD: the “one-hybrid fitness for binding NBS DNA” value was at most 0.2.

For QTEW, the “one-hybrid fitness for binding NBS DNA” value was at most 0.2.

Turning to IWAS, the “one-hybrid fitness for binding NBS DNA” value was at most 0.2.

In the case of RQPG, the “one-hybrid fitness for binding NBS DNA” value is at most 0.2.

Turning to SPRW, the “one-hybrid fitness for binding NBS DNA” value is at most 0.2.

For the variant TREP, the “one-hybrid fitness for binding NBS DNA” value is at most 0.2.

On to APLV, for which the “one-hybrid fitness for binding NBS DNA” value is at most 0.2.

CQTP: the “one-hybrid fitness for binding NBS DNA” value was at most 0.2.

In the case of NGVL, the “one-hybrid fitness for binding NBS DNA” value was at most 0.2.

On to WQDG, for which the “one-hybrid fitness for binding NBS DNA” value was at most 0.2.

With ADNQ, the “one-hybrid fitness for binding NBS DNA” value is at most 0.2.

Regarding QPFT, the “one-hybrid fitness for binding NBS DNA” value was at most 0.2.

Consider GGHV, for which the “one-hybrid fitness for binding NBS DNA” value was at most 0.2.

Turning to TGHT, the “one-hybrid fitness for binding NBS DNA” value was at most 0.2.

In the case of CIEL, the “one-hybrid fitness for binding NBS DNA” value was at most 0.2.

With KSHI, the “one-hybrid fitness for binding NBS DNA” value was at most 0.2.

Consider APRC, for which the “one-hybrid fitness for binding NBS DNA” value is at most 0.2.

As for CFTY, the “one-hybrid fitness for binding NBS DNA” value is at most 0.2.

Take WSRY: the “one-hybrid fitness for binding NBS DNA” value is at most 0.2.

For EPQG, the “one-hybrid fitness for binding NBS DNA” value is at most 0.2.

In the case of KKMS, the “one-hybrid fitness for binding NBS DNA” value was at most 0.2.

As for FDRF, the “one-hybrid fitness for binding NBS DNA” value is at most 0.2.

As for RCHI, the “one-hybrid fitness for binding NBS DNA” value was at most 0.2.

Take RHWP: the “one-hybrid fitness for binding NBS DNA” value was at most 0.2.

Take TIDC: the “one-hybrid fitness for binding NBS DNA” value is at most 0.2.

TPAT: the “one-hybrid fitness for binding NBS DNA” value was at most 0.2.

In the case of GGVS, the “one-hybrid fitness for binding NBS DNA” value is at most 0.2.

As to SGSW, the “one-hybrid fitness for binding NBS DNA” value is at most 0.2.

For NHMG, the “one-hybrid fitness for binding NBS DNA” value is at most 0.2.

Consider CPQS, for which the “one-hybrid fitness for binding NBS DNA” value was at most 0.2.

With RHGC, the “one-hybrid fitness for binding NBS DNA” value was at most 0.2.

With WVIS, the “one-hybrid fitness for binding NBS DNA” value was at most 0.2.

With GHGR, the “one-hybrid fitness for binding NBS DNA” value is at most 0.2.

Turning to RGAQ, the “one-hybrid fitness for binding NBS DNA” value is at most 0.2.

NPRH: the “one-hybrid fitness for binding NBS DNA” value is at most 0.2.

As for PMKI, the “one-hybrid fitness for binding NBS DNA” value is at most 0.2.

As for KLHK, the “one-hybrid fitness for binding NBS DNA” value is at most 0.2.

With MCWG, the “one-hybrid fitness for binding NBS DNA” value is at most 0.2.

Turning to EGKC, the “one-hybrid fitness for binding NBS DNA” value is at most 0.2.

Consider RRMH, for which the “one-hybrid fitness for binding NBS DNA” value was found to be 0.403.

Turning to QNMS, the “one-hybrid fitness for binding NBS DNA” value was at most 0.2.

With NESR, the “one-hybrid fitness for binding NBS DNA” value was at most 0.2.

On to QTHF, for which the “one-hybrid fitness for binding NBS DNA” value is at most 0.2.

YRKK: the “one-hybrid fitness for binding NBS DNA” value is at most 0.2.

For the variant GALN, the “one-hybrid fitness for binding NBS DNA” value is at most 0.2.

As to FMIR, the “one-hybrid fitness for binding NBS DNA” value was at most 0.2.

In the case of HLRY, the “one-hybrid fitness for binding NBS DNA” value is at most 0.2.

With EGPF, the “one-hybrid fitness for binding NBS DNA” value was at most 0.2.

With FFVS, the “one-hybrid fitness for binding NBS DNA” value was at most 0.2.

Take ISEC: the “one-hybrid fitness for binding NBS DNA” value was at most 0.2.

ESRA: the “one-hybrid fitness for binding NBS DNA” value is at most 0.2.

In the case of DQYR, the “one-hybrid fitness for binding NBS DNA” value is at most 0.2.

Turning to HDTN, the “one-hybrid fitness for binding NBS DNA” value is at most 0.2.

As for GFSS, the “one-hybrid fitness for binding NBS DNA” value was at most 0.2.

As to SHIK, the “one-hybrid fitness for binding NBS DNA” value is at most 0.2.

As to SGVA, the “one-hybrid fitness for binding NBS DNA” value was at most 0.2.

Turning to FVAG, the “one-hybrid fitness for binding NBS DNA” value was at most 0.2.

Take KTLR: the “one-hybrid fitness for binding NBS DNA” value was at most 0.2.

As to EARP, the “one-hybrid fitness for binding NBS DNA” value is at most 0.2.

As to KVAR, the “one-hybrid fitness for binding NBS DNA” value was at most 0.2.

In the case of DIHE, the “one-hybrid fitness for binding NBS DNA” value was at most 0.2.

For CLMF, the “one-hybrid fitness for binding NBS DNA” value is at most 0.2.

Turning to VESW, the “one-hybrid fitness for binding NBS DNA” value was at most 0.2.

Consider TPKN, for which the “one-hybrid fitness for binding NBS DNA” value is at most 0.2.

Regarding FGKR, the “one-hybrid fitness for binding NBS DNA” value was found to be 0.34.

On to PADY, for which the “one-hybrid fitness for binding NBS DNA” value was at most 0.2.

With SSVF, the “one-hybrid fitness for binding NBS DNA” value was at most 0.2.

For the variant TLCN, the “one-hybrid fitness for binding NBS DNA” value is at most 0.2.

As for PCLF, the “one-hybrid fitness for binding NBS DNA” value is at most 0.2.

Take PPCA: the “one-hybrid fitness for binding NBS DNA” value was at most 0.2.

In the case of AWPY, the “one-hybrid fitness for binding NBS DNA” value is at most 0.2.

Take KRMF: the “one-hybrid fitness for binding NBS DNA” value is at most 0.2.

As for KDHT, the “one-hybrid fitness for binding NBS DNA” value was at most 0.2.

With SHKF, the “one-hybrid fitness for binding NBS DNA” value was at most 0.2.

For the variant PQCN, the “one-hybrid fitness for binding NBS DNA” value was at most 0.2.

TMPW: the “one-hybrid fitness for binding NBS DNA” value was at most 0.2.

For the variant IMNR, the “one-hybrid fitness for binding NBS DNA” value was at most 0.2.

As for HDNG, the “one-hybrid fitness for binding NBS DNA” value was at most 0.2.

On to HNNV, for which the “one-hybrid fitness for binding NBS DNA” value was at most 0.2.

Consider LSQY, for which the “one-hybrid fitness for binding NBS DNA” value is at most 0.2.

Take CLVD: the “one-hybrid fitness for binding NBS DNA” value is at most 0.2.

For DSWV, the “one-hybrid fitness for binding NBS DNA” value is at most 0.2.

Take ALRR: the “one-hybrid fitness for binding NBS DNA” value turned out to be 0.207.

As to CMTG, the “one-hybrid fitness for binding NBS DNA” value is at most 0.2.

On to HGTE, for which the “one-hybrid fitness for binding NBS DNA” value was at most 0.2.

Consider HRQS, for which the “one-hybrid fitness for binding NBS DNA” value is at most 0.2.

As for WKRG, the “one-hybrid fitness for binding NBS DNA” value was at most 0.2.

As for RCVL, the “one-hybrid fitness for binding NBS DNA” value was at most 0.2.

For the variant EYLS, the “one-hybrid fitness for binding NBS DNA” value was at most 0.2.

For TPGL, the “one-hybrid fitness for binding NBS DNA” value is at most 0.2.

On to LTKV, for which the “one-hybrid fitness for binding NBS DNA” value was at most 0.2.
